Article PMC4336329 (PLoS ONE, 2015)
In all, about 310,000 compounds went through this assay and about 14,000 (4.5%) showed an effect of 50% or more. The effect is printed as a negative number. The list shows a part of the results.

Target: human ether-à-go-go-related gene (hERG) potassium channel (human, UniProt Q12809)
Experiment: primary screen, population patch clamp on CHO cells stably expressing hERG
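Further: peak tail current of the secondary pulse compared with the same well before compound.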

Sequence of human ether-à-go-go-related gene (hERG) potassium channel (Q12809 whole entry, looked up): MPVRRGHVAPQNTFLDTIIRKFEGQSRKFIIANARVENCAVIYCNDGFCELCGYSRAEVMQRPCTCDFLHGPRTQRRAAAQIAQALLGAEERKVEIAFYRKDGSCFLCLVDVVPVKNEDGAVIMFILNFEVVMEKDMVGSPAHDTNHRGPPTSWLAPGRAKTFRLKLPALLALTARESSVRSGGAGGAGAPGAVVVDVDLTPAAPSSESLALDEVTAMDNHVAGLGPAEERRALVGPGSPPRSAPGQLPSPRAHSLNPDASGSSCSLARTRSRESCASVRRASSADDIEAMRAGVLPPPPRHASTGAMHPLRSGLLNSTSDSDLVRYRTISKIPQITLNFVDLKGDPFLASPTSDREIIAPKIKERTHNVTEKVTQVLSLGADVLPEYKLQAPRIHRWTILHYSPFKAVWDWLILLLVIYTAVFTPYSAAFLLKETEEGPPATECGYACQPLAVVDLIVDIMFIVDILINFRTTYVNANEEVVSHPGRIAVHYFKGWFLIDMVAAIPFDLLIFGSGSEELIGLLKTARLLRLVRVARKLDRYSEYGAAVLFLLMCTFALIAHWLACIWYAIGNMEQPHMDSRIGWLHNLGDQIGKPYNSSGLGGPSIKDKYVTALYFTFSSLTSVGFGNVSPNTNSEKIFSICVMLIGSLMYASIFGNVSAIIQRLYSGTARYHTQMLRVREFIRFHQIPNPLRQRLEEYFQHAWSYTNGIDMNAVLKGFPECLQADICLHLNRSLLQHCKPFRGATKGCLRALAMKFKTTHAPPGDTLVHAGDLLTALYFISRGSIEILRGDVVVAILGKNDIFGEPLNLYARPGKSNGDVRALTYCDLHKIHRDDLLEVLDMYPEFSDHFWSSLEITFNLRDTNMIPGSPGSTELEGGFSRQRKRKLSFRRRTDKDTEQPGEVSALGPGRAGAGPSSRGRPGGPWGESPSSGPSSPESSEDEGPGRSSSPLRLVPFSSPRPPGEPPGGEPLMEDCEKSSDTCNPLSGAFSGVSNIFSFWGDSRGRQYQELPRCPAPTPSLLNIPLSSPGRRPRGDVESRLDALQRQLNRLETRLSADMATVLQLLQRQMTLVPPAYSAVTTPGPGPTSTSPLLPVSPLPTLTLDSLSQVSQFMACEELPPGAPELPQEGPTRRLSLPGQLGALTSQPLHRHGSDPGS

SMILES | hERG current change (%, negative = inhibition) at 10uM [%]
COc1ccc(C(=O)NC2CC3CCCC(C2)N3CC(C)C)cc1 (centres unmarked) | -34.7
CCOC(=O)COc1ccc(S(=O)(=O)N2CCc3ccccc3C2)cc1 | -3.43
CC1Cc2ccccc2N1C(=O)COC(=O)c1ccc(Br)o1 (centres unmarked) | 8.05
Cc1ccc2[nH]c(=O)c(COC(=O)c3cccs3)cc2c1 | -1.59
O=C1CSC2(C(=O)N3CCCc4cccc2c43)N1c1cccc(C(F)(F)F)c1 (centres unmarked) | -23.6
CCCn1nc(C(=O)NCCc2ccc(S(N)(=O)=O)cc2)c2ccccc2c1=O | -15.8
CC1CCCCC1NC(=O)CSc1nnc(-c2ccncc2)n1CCCN(C)C.O=C(O)C(=O)O (centres unmarked) | 3.09
CC(C)CNC(=O)c1ccc(NC(=O)c2cccs2)cc1 | -2.04
COc1ccc(C)cc1N(CC(=O)Nc1ccc2c(c1)OCCO2)S(C)(=O)=O | 11.6
COCCNC(=O)Cn1nc(-c2ccc(C)cc2)c2ccccc2c1=O | 3.46
CCOc1ccccc1N(CC(=O)Nc1ccccc1C(=O)OC)S(C)(=O)=O | 12
COc1cccc(CNCC(=O)N2C(C)CCCC2C)c1.O=C(O)C(=O)O (centres unmarked) | -3.1
Cc1ccc(C(=O)N/C(=C\c2cn(C)c3ccccc23)C(=O)N2CCOCC2)cc1 | -6.6
Cc1ccc(C(=O)NC2CCN(S(=O)(=O)c3ccc(F)cc3)CC2)cc1 | 11.6
Cc1ccc(N(CC(=O)NC(C)C)C(=O)CCC(=O)Nc2ccccn2)cc1 | 21
COc1ccc(NC(=O)NCCCN2CCC(Cc3ccccc3)CC2)cc1 | -77.5
Cc1ccc(Oc2cc(C)nc(-c3ccccc3O)n2)cc1 | 0.258
CC(O)CC(C)O (centres unmarked) | 24.9
CC1(C)Oc2ccc3ccc(=O)oc3c2/C(=C/NCCN/C=C2\C(=O)C(C)(C)Oc3ccc4ccc(=O)oc4c32)C1=O | -7.38
CC(=O)c1ccc(N2CCN(S(=O)(=O)c3cc4c(cc3C)NC(=O)CO4)CC2)cc1 | 8.4
Cc1noc(C)c1C(=O)OC(C)C(=O)N(C)c1ccccc1 (centres unmarked) | -4.55
O=C(CS(=O)(=O)c1ccccc1)c1cc2cc(F)ccc2oc1=O | 0.672

SMILES | hERG current change (%, negative = inhibition) at 10uM [%]
COC(=O)c1c(NC(C)=O)sc(C(=O)Nc2ccccc2F)c1C | 24.5
CCOP(=O)(c1ccccc1)c1nc(-c2ccc(F)cc2)oc1N1CCCCC1 (centres unmarked) | -56.6
COc1ccc(NC(=S)NC2CC3CCC(C2)N3Cc2ccco2)cc1 (centres unmarked) | -30.1
N#Cc1c(-c2ccccc2)ccnc1Oc1ccccc1 | 0.00568
CC(C)N(C(=O)Cc1ccccc1[N+](=O)[O-])C(C)C | 13.5
O=C(Cn1c(=O)oc2ccccc21)Nc1ccc(S(=O)(=O)N2CCCCC2)cc1 | -6.33
CC1(C)Cc2ccccc2C(NN=C2CCCC2)=N1 | -21.2
Cc1ccc(NC(=O)c2sc3ncn(CC(=O)N4CCOCC4)c(=O)c3c2C)c(Br)c1 | 3.31
Cc1cnc(NC(=O)c2ccccn2)s1 | 12.4
Cc1ccc(N2C(=O)NC(=O)C3(Cc4ccccc4N4CCN(c5ccccc5)CC43)C2=O)cc1 (centres unmarked) | -12.1
COc1ccc(C(=O)NC2CCCc3ccccc32)cc1S(=O)(=O)N1CCOCC1 (centres unmarked) | 2.93
COc1ccc(C2C(C(=O)c3cccs3)=C(O)C(=O)N2Cc2cccnc2)cc1OC (centres unmarked) | 5.03
CC(C)CCNC(=O)c1ccc2c(c1)N(Cc1ccccc1)C(=O)CS2=O (centres unmarked) | -6.95
CC(=O)N1CCc2cc(S(=O)(=O)CCC(=O)Nc3c(C)n(C)n(-c4ccccc4)c3=O)ccc21 | -4.16
COC(=O)c1cc(NC(=O)/C=C/c2ccccc2)ccc1O | -0.657
CCC(CO)NCC(O)COCc1ccc2c(c1)OCO2 (centres unmarked) | 10.1
Cc1ccc(C(c2nnnn2C2CCCC2)N2c3ccccc3CC2C)cc1.Cl (centres unmarked) | 18.5
CCN(CC(=O)NCc1cccs1)S(=O)(=O)c1cccc(C(C)=O)c1 | 0.039
Cc1ccc(Cn2ccc(NC(=O)C3C4CCC(C4)C3C(=O)O)n2)cc1 (centres unmarked) | 7.82
CC(=O)Nc1nc2ccccc2n1Cc1ccc(Cl)cc1 | -15.4
COc1nn(CC(=O)N2N=C(C(F)F)CC2(O)C(F)F)cc1[N+](=O)[O-] (centres unmarked) | -5.04
O=c1c(Cl)c(O)c2cccc3c4ccccc4n1c23 | 20.5
